The other results are listed elsewhere or left out. Rule as the data show it: active = 3.2 or more and inactive = the rest. Only a few entries rise above the background.

We go through 19 molecules from the supplement of paper PMC10369915.
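Also: displayed peptides selected on beads carrying the immobilized SH2 domain, with library peptides lacking any tyrosine serving as negative controls.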

For the first test, the target named is SHP2 C-SH2 domain E139D. The test can be described thus: enrichment score (SH2-bound / input frequency) (ratio); bacterial display of known human phosphotyrosine sites (pTyr-Var adds point mutants) read by sequencing; higher = stronger binding; tyrosines were phosphorylated by kinases first. The note with it: peptide library: pTyr-Var.
On to MHDKEYYSVHN [MET_Y1234_Y1230H], for which the enrichment score was inactive: 0.841.

For the molecule HFGCVYFGTLL [MET_Y1093_H1094Y_YF], the enrichment score is inactive: 1.13.

Regarding LGRTRYQHVTG [MIPEP_Y510], the enrichment score was inactive: 0.572.

As for HDKEYYSVHNK [MET_Y1235_Y1230H], the enrichment score was inactive: 1.09.

HFGCVYHGTLL [MET_Y1093]: the enrichment score is inactive: 1.19.

Regarding EGWQVYRLGAR [MISP_Y95], the enrichment score was inactive: 0.668.

Take CDKEFYSVHNK [MET_Y1235_Y1230C_YF]: the enrichment score is inactive: 0.586.

With AKGMKYVASKK [MET_Y1194_L1195V], the enrichment score was inactive: 0.61.

With GAVGNYSGGLA [MGMT_Y158], the enrichment score is inactive: 0.634.

Consider SHNKFYMLVAH [MFSD8_Y134_R139H_YF], for which the enrichment score was inactive: 2.66.

As for MFDKEYFSVHN [MET_Y1234_YF], the enrichment score was inactive: 1.09.

With LARDMYDKEFF [MET_Y1230_YF], the enrichment score was inactive: 0.719.

Turning to MHDKEYFSVHN [MET_Y1234_Y1230H_YF], the enrichment score was inactive: 0.608.

As for MPAVTYTLAMR [MEGF10_Y895_P897L], the enrichment score is inactive: 0.818.

With AKGMKYLASKK [MET_Y1194], the enrichment score was inactive: 0.462.

For RVQQIYSDSDL [MIB1_Y376], the enrichment score was inactive: 0.857.

As for LARDMYDKEYY [MET_Y1230], the enrichment score is inactive: 0.895.

For KASVDYIRKLQ [MITF_Y360], the enrichment score is inactive: 0.688.

With RESSGYLRLAF [MEP1A_Y481], the enrichment score is inactive: 1.36.

The target in another test is SHP2 C-SH2 domain wild-type. Described as above. Particulars: peptide library: pTyr-Var.
MHDKEYYSVHN [MET_Y1234_Y1230H]: the enrichment score was inactive: 0.659.

With HFGCVYFGTLL [MET_Y1093_H1094Y_YF], the enrichment score was inactive: 1.33.

For the molecule LGRTRYQHVTG [MIPEP_Y510], the enrichment score was inactive: 0.343.

Take HDKEYYSVHNK [MET_Y1235_Y1230H]: the enrichment score is inactive: 0.664.

Take HFGCVYHGTLL [MET_Y1093]: the enrichment score was inactive: 1.65.

For the molecule EGWQVYRLGAR [MISP_Y95], the enrichment score is inactive: 0.703.

On to CDKEFYSVHNK [MET_Y1235_Y1230C_YF], for which the enrichment score is inactive: 0.667.

As to AKGMKYVASKK [MET_Y1194_L1195V], the enrichment score is inactive: 0.89.

In the case of GAVGNYSGGLA [MGMT_Y158], the enrichment score was inactive: 0.716.

On to SHNKFYMLVAH [MFSD8_Y134_R139H_YF], for which the enrichment score is inactive: 2.67.

For the molecule MFDKEYFSVHN [MET_Y1234_YF], the enrichment score was inactive: 0.951.

Turning to LARDMYDKEFF [MET_Y1230_YF], the enrichment score was inactive: 0.669.

Turning to MHDKEYFSVHN [MET_Y1234_Y1230H_YF], the enrichment score was inactive: 0.692.

As to MPAVTYTLAMR [MEGF10_Y895_P897L], the enrichment score is inactive: 1.67.

For AKGMKYLASKK [MET_Y1194], the enrichment score was inactive: 0.534.

Consider RVQQIYSDSDL [MIB1_Y376], for which the enrichment score was inactive: 0.899.

As for LARDMYDKEYY [MET_Y1230], the enrichment score was inactive: 0.81.

Consider KASVDYIRKLQ [MITF_Y360], for which the enrichment score was inactive: 0.621.

Take RESSGYLRLAF [MEP1A_Y481]: the enrichment score was inactive: 3.1.

Another test addresses SHP2 N-SH2 domain L43F. Described as above. Particulars: peptide library: pTyr-Var.
Turning to MHDKEYYSVHN [MET_Y1234_Y1230H], the enrichment score was inactive: 0.665.

On to HFGCVYFGTLL [MET_Y1093_H1094Y_YF], for which the enrichment score is inactive: 1.37.

As for LGRTRYQHVTG [MIPEP_Y510], the enrichment score was inactive: 0.526.

As to HDKEYYSVHNK [MET_Y1235_Y1230H], the enrichment score was inactive: 0.371.

In the case of HFGCVYHGTLL [MET_Y1093], the enrichment score is inactive: 0.997.

For EGWQVYRLGAR [MISP_Y95], the enrichment score was inactive: 0.6.

Regarding CDKEFYSVHNK [MET_Y1235_Y1230C_YF], the enrichment score is inactive: 0.838.

On to AKGMKYVASKK [MET_Y1194_L1195V], for which the enrichment score was inactive: 0.738.

On to GAVGNYSGGLA [MGMT_Y158], for which the enrichment score is inactive: 0.665.

Consider SHNKFYMLVAH [MFSD8_Y134_R139H_YF], for which the enrichment score was inactive: 2.2.

MFDKEYFSVHN [MET_Y1234_YF]: the enrichment score is inactive: 1.01.

With LARDMYDKEFF [MET_Y1230_YF], the enrichment score is inactive: 0.896.

Consider MHDKEYFSVHN [MET_Y1234_Y1230H_YF], for which the enrichment score is inactive: 0.655.

Regarding MPAVTYTLAMR [MEGF10_Y895_P897L], the enrichment score is inactive: 1.57.

As to AKGMKYLASKK [MET_Y1194], the enrichment score was inactive: 0.506.

Regarding RVQQIYSDSDL [MIB1_Y376], the enrichment score was inactive: 0.863.

Consider LARDMYDKEYY [MET_Y1230], for which the enrichment score was inactive: 0.974.

For the molecule KASVDYIRKLQ [MITF_Y360], the enrichment score was inactive: 0.652.

Take RESSGYLRLAF [MEP1A_Y481]: the enrichment score is active: 6.02.

Another test addresses SHP2 N-SH2 domain T42A. The description is as above. The note with it: peptide library: pTyr-Var.
In the case of MHDKEYYSVHN [MET_Y1234_Y1230H], the enrichment score is inactive: 0.495.

HFGCVYFGTLL [MET_Y1093_H1094Y_YF]: the enrichment score is inactive: 0.916.

In the case of LGRTRYQHVTG [MIPEP_Y510], the enrichment score is inactive: 0.445.

On to HDKEYYSVHNK [MET_Y1235_Y1230H], for which the enrichment score was inactive: 0.515.

Regarding HFGCVYHGTLL [MET_Y1093], the enrichment score is inactive: 1.02.

As for EGWQVYRLGAR [MISP_Y95], the enrichment score is inactive: 0.617.

Consider CDKEFYSVHNK [MET_Y1235_Y1230C_YF], for which the enrichment score was inactive: 0.57.

Take AKGMKYVASKK [MET_Y1194_L1195V]: the enrichment score was inactive: 0.583.

As to GAVGNYSGGLA [MGMT_Y158], the enrichment score was inactive: 0.391.

With SHNKFYMLVAH [MFSD8_Y134_R139H_YF], the enrichment score was inactive: 2.31.

With MFDKEYFSVHN [MET_Y1234_YF], the enrichment score was inactive: 0.761.

As for LARDMYDKEFF [MET_Y1230_YF], the enrichment score is inactive: 0.712.

As to MHDKEYFSVHN [MET_Y1234_Y1230H_YF], the enrichment score was inactive: 0.602.

MPAVTYTLAMR [MEGF10_Y895_P897L]: the enrichment score was inactive: 2.45.

AKGMKYLASKK [MET_Y1194]: the enrichment score was inactive: 0.526.

For the molecule RVQQIYSDSDL [MIB1_Y376], the enrichment score is inactive: 0.568.

In the case of LARDMYDKEYY [MET_Y1230], the enrichment score is inactive: 0.648.

Turning to KASVDYIRKLQ [MITF_Y360], the enrichment score was inactive: 0.51.

RESSGYLRLAF [MEP1A_Y481]: the enrichment score was active: 13.3.

For a further test, the target named is SHP2 N-SH2 domain T52S. Described as above. Particulars: peptide library: pTyr-Var.
MHDKEYYSVHN [MET_Y1234_Y1230H]: the enrichment score is inactive: 0.61.

For HFGCVYFGTLL [MET_Y1093_H1094Y_YF], the enrichment score was inactive: 1.2.

As for LGRTRYQHVTG [MIPEP_Y510], the enrichment score is inactive: 0.465.

Consider HDKEYYSVHNK [MET_Y1235_Y1230H], for which the enrichment score was inactive: 0.757.

On to HFGCVYHGTLL [MET_Y1093], for which the enrichment score was inactive: 1.26.

EGWQVYRLGAR [MISP_Y95]: the enrichment score is inactive: 0.487.

In the case of CDKEFYSVHNK [MET_Y1235_Y1230C_YF], the enrichment score was inactive: 0.692.

In the case of AKGMKYVASKK [MET_Y1194_L1195V], the enrichment score is inactive: 0.741.

Take GAVGNYSGGLA [MGMT_Y158]: the enrichment score was inactive: 0.567.

For the molecule SHNKFYMLVAH [MFSD8_Y134_R139H_YF], the enrichment score is inactive: 2.5.

Take MFDKEYFSVHN [MET_Y1234_YF]: the enrichment score is inactive: 1.01.

For the molecule LARDMYDKEFF [MET_Y1230_YF], the enrichment score was inactive: 1.01.

For MHDKEYFSVHN [MET_Y1234_Y1230H_YF], the enrichment score was inactive: 0.64.

For the molecule MPAVTYTLAMR [MEGF10_Y895_P897L], the enrichment score was inactive: 1.68.

With AKGMKYLASKK [MET_Y1194], the enrichment score was inactive: 0.705.

In the case of RVQQIYSDSDL [MIB1_Y376], the enrichment score is inactive: 0.785.

Turning to LARDMYDKEYY [MET_Y1230], the enrichment score is inactive: 0.79.

In the case of KASVDYIRKLQ [MITF_Y360], the enrichment score was inactive: 0.672.

For RESSGYLRLAF [MEP1A_Y481], the enrichment score was active: 7.99.

In the next test the target is SHP2 N-SH2 domain wild-type. The test is described as above. The note with it: peptide library: pTyr-Var.
MHDKEYYSVHN [MET_Y1234_Y1230H]: the enrichment score was inactive: 0.56.

In the case of HFGCVYFGTLL [MET_Y1093_H1094Y_YF], the enrichment score was inactive: 1.42.

As for LGRTRYQHVTG [MIPEP_Y510], the enrichment score was inactive: 0.475.

Take HDKEYYSVHNK [MET_Y1235_Y1230H]: the enrichment score is inactive: 0.979.

Regarding HFGCVYHGTLL [MET_Y1093], the enrichment score was inactive: 1.42.

EGWQVYRLGAR [MISP_Y95]: the enrichment score is inactive: 0.86.

Take CDKEFYSVHNK [MET_Y1235_Y1230C_YF]: the enrichment score is inactive: 0.63.

With AKGMKYVASKK [MET_Y1194_L1195V], the enrichment score is inactive: 0.893.

Consider GAVGNYSGGLA [MGMT_Y158], for which the enrichment score is inactive: 0.584.

For SHNKFYMLVAH [MFSD8_Y134_R139H_YF], the enrichment score was inactive: 2.53.

As for MFDKEYFSVHN [MET_Y1234_YF], the enrichment score was inactive: 0.995.

For the molecule LARDMYDKEFF [MET_Y1230_YF], the enrichment score is inactive: 0.543.

On to MHDKEYFSVHN [MET_Y1234_Y1230H_YF], for which the enrichment score was inactive: 0.845.

For MPAVTYTLAMR [MEGF10_Y895_P897L], the enrichment score was inactive: 1.09.

With AKGMKYLASKK [MET_Y1194], the enrichment score was inactive: 0.502.

In the case of RVQQIYSDSDL [MIB1_Y376], the enrichment score was inactive: 1.3.

For the molecule LARDMYDKEYY [MET_Y1230], the enrichment score is inactive: 0.775.

In the case of KASVDYIRKLQ [MITF_Y360], the enrichment score is inactive: 0.692.

RESSGYLRLAF [MEP1A_Y481]: the enrichment score is inactive: 2.8.
